Source: patent US8852883B2 (priority 2008, dated 2014)

Test system: B. globigii cells
Assay type: cell-based
Conditions: B. globigii cultured in presence of BikKam1

In the case of FITC-Ahx-Leu-DLeu-Lys-DABCYL [BikKam1], the “Fluorescent bacteria (fluorescence microscopy)” value is reported as “did not lead to fluorescent bacteria”.
